The results in this text go back to ChEMBL document CHEMBL1201862, “PubChem BioAssay data set” (2004).

SMILES strings stand for the structures.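 96-well plates; 48 h exposure; 5 concentrations. Endpoints by linear interpolation between flanking doses. Not reached: highest tested concentration assigned. GI50 marks 50% less growth.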 Calls of active or inactive are those of the source. Rule as the data show it: active = GI50 up to about 1.1 µM and inactive = higher. Bounds are passed on as bounds.

The experiment deals with NCI-H322M. The experiment in a line: NCI anticancer screen, dose series, 48 h.
For `CN(C)CCNc1ccc2c(=O)n(CCN(C)C)c(=O)n3c4ccc(N)cc4c(=O)c1c23`, the GI50 was active: < 0.0191 µM. Consider `N#CNC(=N)Nc1ccc(Cl)cc1`, for which the GI50 was inactive: > 100 µM. The same measure for `CN1CCc2nc(N)nc(-c3nc(N)nc4c3CN(C)CC4)c2C1`: inactive: > 100 µM. In the case of `N=C(N)SC(c1ccccc1)c1ccccc1`, the GI50 is inactive: 22 µM. The same measure for `COc1ccc2c(c1)c1ccc3c(c1n2C)C(=O)C=CC3=O`: inactive: 22.9 µM; for `C=C(C)C1CC=C(C)CC1` (stereo not given): inactive: 968 µM; for `N#CC12CNCC1CN=N2` (stereo not given): inactive: > 100 µM. As for `O=C(NCc1ccccc1)c1cc2ccccc2o/c1=N\c1ccccc1F`, the GI50 is inactive: 28.8 µM. With `CC(C)OC(=O)c1ccc(NCC2=CC(=O)C=CC2=O)cc1Cl` the figure was inactive: 39.7 µM. Take `COc1cc2c(cc1OC)C(=O)Cc1ccc(OC)c(OC)c1CN(C)CC2`: the GI50 is inactive: 46.3 µM. The same measure for `O=C(c1ccccc1O)c1cc(-c2ncc3c(=O)c4ccccc4oc3n2)c(-c2ccccc2O)[nH]c1=O`: inactive: 39.4 µM. With `O=C(CCN1CCCCC1CCO)Nc1ccc2c(c1)C(=O)c1ccc(NC(=O)CCN3CCCCC3CCO)cc1C2=O` (stereo not given) the figure was inactive: 3.85 µM; with `Nc1ccc2c3c1cccc3c(=O)n1c3ccc(Cc4ccc5c(c4)nc4c6ccc(N)c7cccc(c(=O)n54)c76)cc3nc21`, inactive: > 100 µM. With `CCC12CCCNC1c1c(n(C)c3ccccc13)C(C(=O)OC)C2` (stereo not given) the figure was inactive: 75.3 µM. In the case of `O=C(O)Cc1ccc2c(c1O)C(=O)c1c(ccc(CC(=O)O)c1O)C2=O`, the GI50 was inactive: > 100 µM.

Take `NC1=NN(c2ccccc2)C2(O)c3ccncc3C3=NN(c4ccccc4)C(=O)C132` (stereo not given): the GI50 was inactive: > 100 µM. With `N#CC(C(=O)c1cccnc1Cl)c1nc2cc(C(F)(F)F)ccc2s1` (stereo not given) the figure was inactive: 31.6 µM; with `NNc1nncn1N`, inactive: > 100 µM; with `CC(CCC(=O)O)C(=O)O` (stereo not given), inactive: > 100 µM. As to `COC(=O)C1CCC(=O)N1CN(C(C)=O)c1ccccc1Cl` (stereo not given), the GI50 was inactive: > 100 µM. As to `CC(=O)N1c2cc(/N=N/N(C)C)ccc2NC(=O)CC1C` (stereo not given), the GI50 is inactive: > 100 µM.

In the case of `C=CCOc1ccc2c(C)cc(=O)oc2c1C`, the GI50 is inactive: > 100 µM. Turning to `CCOC(=O)[C@H]1Nc2ccccc2C2c3ccccc3CC21` (stereo not given in full), the GI50 is inactive: 89.1 µM. With `O[C@@H]1C=C[C@]23CCN(Cc4cc5c(cc42)OCO5)[C@@H]3C1` the figure was inactive: 60.8 µM.

As for `C=CC(C)(C)C(=C)C(=O)N(C)c1ccccc1I`, the GI50 is inactive: > 100 µM. The same measure for `CC(C)(C)OC(=O)NC(CCC(=O)OCc1ccccc1)C(=O)NCCCO` (stereo not given): inactive: > 100 µM; for `Cc1nc2ccncc2[nH]1`: inactive: > 100 µM. As to `Cc1ccc2c(c1)-c1nc(N)c(C#N)c(-c3ccc(Cl)cc3)c1CCS2(=O)=O`, the GI50 is inactive: 27.6 µM. With `COc1cc(Cn2c3c(c4cc(O)ccc42)C(=O)c2ccccc2C3=O)cc(OC)c1` the figure was inactive: 15.2 µM; with `COc1ccc(N2C(=O)[C@H]3[C@H]4CC(C(C)(C)C)CC[C@H]4c4c(n(C)c5ccccc45)[C@H]3C2=O)cc1` (stereo not given in full), inactive: > 100 µM. Turning to `O=C(c1ccccc1)n1[nH]c(=O)n(-c2ccc(Cl)cc2)c1=O`, the GI50 is inactive: > 100 µM. Consider `N#Cc1c(N2CCCC2)nsc1NCc1ccccc1`, for which the GI50 is inactive: > 100 µM. Take `O=c1ccc2ccc(CBr)cc2o1`: the GI50 is inactive: 14.5 µM. As for `COC(=O)C1=C(C)NC(C)=C(C(=O)OC)C1c1cccc(NO)c1`, the GI50 is inactive: > 100 µM. Regarding `COc1cc2c(cc1OCc1ccccc1)NC(=O)[C@@H]1CCCN1C2=O`, the GI50 was inactive: > 100 µM. With `Nc1nc(Cl)cc(NCC2(O)CC2)n1` the figure was inactive: > 100 µM; with `Cc1ccccc1C(=O)N1CCc2c([nH]c3ccccc23)C1`, inactive: 36.5 µM. The same measure for `NC1=CN(Cc2ccccc2)C2=N/C(=C\c3ccccc3)C(=O)N12`: inactive: > 100 µM; for `CCCCCCCCCCCCCCCC(=O)Nc1ccn(C2CC(OP(=O)(O)OCC3OC(n4cc(F)c(=O)[nH]c4=O)CC3OC(C)=O)C(CO)O2)c(=O)n1` (stereo not given): inactive: 8.04 µM.

On to `COc1cc2c3c(c1)c1cc(OC)c(OC)cc1c[n+]3CC2`, for which the GI50 was inactive: 7.03 µM. The same measure for `O=C1C[C@H]2CC3(CC[C@H]2CN1)OCCO3`: inactive: > 100 µM; for `COC(=O)c1ccccc1/C=C1\Cc2ccc3c(c2C1=O)CCCC3`: inactive: > 100 µM. Turning to `C=C1C(=O)OC2CC3(CO3)C3C(O)C(O)CC3(C)CC12` (stereo not given), the GI50 is inactive: 49.8 µM.

Consider `Cc1ccccc1-n1c(=O)c2ncn(C3CCCO3)c2n(-c2ccccc2C)c1=S` (stereo not given), for which the GI50 was inactive: > 100 µM.

As to `COCc1cc2c(cc1/C=C/[N+](=O)[O-])OCO2`, the GI50 was inactive: 15.7 µM. In the case of `COC(=O)[C@](C)(Cc1ccccc1)NC(=O)[C@@H](C)N1[C@@H](c2ccccc2)COC1(C)C`, the GI50 was inactive: > 100 µM. The same measure for `c1ccc2c(c1)c1c3n2-c2cc(on2)C3CCC1` (stereo not given): inactive: > 100 µM. Regarding `C=C1CC[C@@H](C)[C@](C)(CCc2ccoc2)C/C=C\C=C/1C(=O)O`, the GI50 is inactive: 39.4 µM.

For `CC(=O)OC1CCC2C(=CCC3C2(C)C(=O)CC2(C)C(C4(C)OC(C(C)C)=CC4=O)C(O)CC32C)C1(C)C` (stereo not given), the GI50 was inactive: 50.1 µM. With `CCc1cccc(C(C)CC)c1NC(=O)C(=O)C(CC(=O)Nc1ccc(Cl)c(Cl)c1)C(=O)OC` (stereo not given) the figure was inactive: > 100 µM; with `CSc1ccc(/C=C2\N=C(c3ccccc3)N(/N=C/c3cc4cc(C)ccc4nc3Cl)C2=O)cc1`, inactive: 40.6 µM.

`CCOC(=O)/C(C(N)=O)=C(O)/C(O)=C/C(=O)c1ccc(Cl)cc1`: the GI50 is inactive: 34.4 µM.

For the compound `Cc1c(Cl)cccc1NC(=O)CC1C(=O)Nc2ccccc2S1(=O)=O` (stereo not given), the GI50 was inactive: 20 µM. Take `O=c1[nH]nc(Cc2ccccc2)n1N=C1CCCCC1`: the GI50 is inactive: > 100 µM. With `Cc1c(C(=O)O)c2cc3ccccc3cc2c(=O)n1C`, the GI50 is inactive: > 10 µM. With `Nn1c(-c2ccccc2Cl)nc2ccccc2c1=O` the figure was inactive: > 100 µM. For `CC(C)=CCC[C@@H](C)c1c2nc3ccccc3[nH]c-2c(C)c(=O)c1O`, the GI50 is inactive: 1.35 µM. With `COc1cc2c(cc1O)NC(=O)[C@@H]1CCCN1C2=O` the figure was inactive: > 100 µM; with `COc1ccc(C2SCC(=O)N2NC(=O)C(C)Oc2ccccc2Cl)cc1` (stereo not given), inactive: > 100 µM. The same measure for `CC(=O)OCC1C(C(C)OC(C)=O)CCC2C1CCC1(C)C(OC(C)=O)CCC21` (stereo not given): inactive: 17.9 µM; for `O=c1[nH]nc(-c2ccc3ccccc3c2)[nH]1`: inactive: > 100 µM. The same measure for `O=c1[nH]c(=O)n(C2OC(CO)C(O)C2O)cc1/N=N/NCc1ccccc1` (stereo not given): inactive: > 100 µM; for `Cc1ccc(NC(=O)CCc2nnc(S)[nH]2)cc1`: inactive: > 100 µM. Consider `O=C1c2ccccc2C(=O)N1CC(CN1C(=O)c2ccccc2C1=O)(C(=O)OCc1ccccc1)C(=O)OCc1ccccc1`, for which the GI50 was inactive: > 100 µM. With `COc1cc(NCCC2CCCCN2)c2ncccc2c1` (stereo not given) the figure was inactive: 99.5 µM; with `CC1=C(C)SC(=C2Sc3[n-]c(=O)[nH]c(=O)c3S2)S1.CCCC[N+](CCCC)(CCCC)CCCC`, inactive: > 100 µM.

For the compound `COc1ccc(CNC(=O)[C@H](Cc2ccc(O)cn2)NC(C)=O)cc1OC`, the GI50 was inactive: > 100 µM. The same measure for `C[C@]12Cc3cnc(-c4ccccc4)nc3C[C@@H]1CC[C@@H]1[C@@H]2CC[C@@]2(C)[C@H]1CC[C@]2(C)O`: inactive: 12.4 µM; for `COc1cc(/C=C2\C(=O)N(c3cccc(Cl)c3)C(c3ccccc3)S2(=O)=O)cc(OC)c1OC` (stereo not given): inactive: > 100 µM; for `COc1ccc(/C=C2\N=C(SC)N(CN3CCOCC3)C2=O)cc1`: inactive: > 100 µM.

With `Nc1c(Cl)cc(-c2nc3ccccc3s2)cc1Cl`, the GI50 was inactive: > 100 µM. `CSc1cc(Cl)c(C)cc1S(=O)(=O)NC(=O)NNc1cnc2ccccc2n1`: the GI50 was inactive: > 100 µM. Consider `CN(C)C(c1ccccc1)C(O)c1ccccc1` (stereo not given), for which the GI50 was inactive: 54.1 µM. The same measure for `NCc1cccc(O)c1O`: inactive: > 100 µM.

Consider `O=C(N/N=C1/C(=O)c2c3ccccc3cc3cccc1c23)c1ccccc1`, for which the GI50 is inactive: 36.3 µM. `CN(NC(=O)CCCl)C1=NCCCCN1`: the GI50 was inactive: > 100 µM.

For `CC(=O)/C(=C/NC(=S)Nc1ccccc1)C(=O)Nc1ccccc1C`, the GI50 is inactive: > 100 µM. With `S=C=Nc1ccc(CSc2nc3ccccc3[nH]2)cc1`, the GI50 is inactive: 17.4 µM. On to `CCCCCCCCCCCCCCCC(=O)OCC1OC(OC)C(NC(=O)N(CCCl)N=O)C(O)C1O` (stereo not given), for which the GI50 was inactive: 19.3 µM.

Turning to `O=C1c2cc3c(cc2[C@@H]2C(O)[C@H]4O[C@H]4C4CCN1C42)OCO3` (stereo not given in full), the GI50 is inactive: > 37.5 µM.

Regarding `CCN1C[C@]2(C)CC[C@H](OC)C34C1C([C@H](OC(C)=O)[C@@H]32)[C@@]1(OC)C[C@H](OC)[C@H]2C[C@@H]4[C@@H]1[C@H]2O`, the GI50 is inactive: > 100 µM. With `O=C1/C(=C/c2ccc([N+](=O)[O-])cc2)CNC/C1=C\c1ccc([N+](=O)[O-])cc1` the figure was inactive: 20.3 µM. On to `O=C(Nc1ccc2ncccc2c1)Nc1ccc2ncccc2c1`, for which the GI50 is inactive: > 100 µM.

As to `COc1ccc(/C=C\c2cc(OC)c(OC(C)=O)c(OC)c2)cc1`, the GI50 was inactive: 18.4 µM. With `O=C(/C=C/c1ccccc1)Oc1ccc(C(=O)/C=C/c2ccc(Cl)cc2)cc1` the figure was inactive: 54.8 µM.
